# In publication PMC4336329 (PLoS ONE, 2015):
# Out of some 310,000 compounds screened, about 2,200 (0.71%) showed an effect of 50% or more. The effect is printed as a negative number. The list shows a part of the results.
# Target: human ether-à-go-go-related gene (hERG) potassium channel (human, UniProt Q12809)
# Test: primary screen, population patch clamp on CHO cells stably expressing hERG
# Chain of human ether-à-go-go-related gene (hERG) potassium channel (Q12809 whole entry, looked up): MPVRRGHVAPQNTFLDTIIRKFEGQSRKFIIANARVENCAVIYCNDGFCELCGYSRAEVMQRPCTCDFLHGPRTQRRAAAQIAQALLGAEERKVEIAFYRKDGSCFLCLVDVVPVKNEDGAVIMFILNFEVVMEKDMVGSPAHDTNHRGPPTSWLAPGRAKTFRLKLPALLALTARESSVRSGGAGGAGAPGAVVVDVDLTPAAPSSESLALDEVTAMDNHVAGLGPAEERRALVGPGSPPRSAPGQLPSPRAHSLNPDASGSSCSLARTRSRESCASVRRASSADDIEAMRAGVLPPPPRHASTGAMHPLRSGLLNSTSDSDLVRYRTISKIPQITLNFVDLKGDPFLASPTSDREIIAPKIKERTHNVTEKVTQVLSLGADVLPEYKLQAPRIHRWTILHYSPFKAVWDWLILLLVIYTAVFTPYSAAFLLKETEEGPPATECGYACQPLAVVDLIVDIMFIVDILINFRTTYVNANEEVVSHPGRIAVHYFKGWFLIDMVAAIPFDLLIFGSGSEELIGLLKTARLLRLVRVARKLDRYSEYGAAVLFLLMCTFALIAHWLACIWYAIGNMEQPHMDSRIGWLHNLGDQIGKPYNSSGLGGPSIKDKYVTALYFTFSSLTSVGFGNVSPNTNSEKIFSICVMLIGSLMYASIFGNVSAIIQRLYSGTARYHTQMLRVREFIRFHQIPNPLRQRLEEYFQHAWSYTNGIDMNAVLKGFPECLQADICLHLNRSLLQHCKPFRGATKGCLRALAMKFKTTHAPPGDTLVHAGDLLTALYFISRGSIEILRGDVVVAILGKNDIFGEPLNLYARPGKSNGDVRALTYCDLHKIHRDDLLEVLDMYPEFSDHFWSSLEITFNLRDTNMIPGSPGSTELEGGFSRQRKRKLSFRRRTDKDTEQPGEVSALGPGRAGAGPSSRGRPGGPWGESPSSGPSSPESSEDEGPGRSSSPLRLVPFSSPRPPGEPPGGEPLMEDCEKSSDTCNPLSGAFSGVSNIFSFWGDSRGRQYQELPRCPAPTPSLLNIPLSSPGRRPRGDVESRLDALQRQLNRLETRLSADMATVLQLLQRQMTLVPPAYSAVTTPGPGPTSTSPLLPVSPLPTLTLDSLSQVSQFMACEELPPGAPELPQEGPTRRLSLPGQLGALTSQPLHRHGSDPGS
row,Structure (SMILES),"hERG current change (%, negative = inhibition) at 1uM [%]"
1,CCN1CCN(Cc2ccc(NC(=O)Nc3ccccc3OC)cc2)CC1,9.01
2,CN(C)S(=O)(=O)c1ccc(NC(=O)/C=C/c2ccccc2Cl)cc1,3.66
3,O=C1CCCc2c1nc(-c1ccccc1)n2O,6.68
4,CC(C)Cc1ccccc1O,9.67
5,COc1ccc(OC(C)c2ccc(C#N)c(=O)[nH]2)cc1 (centres unmarked),2.85
6,CC(=O)Nc1nonc1NC(=O)COc1ccccc1,7.15
7,CNC(=O)C(=O)N1CCC2(CC1)OCCN2S(=O)(=O)c1ccc(C)cc1,2.89
8,Cn1c(=O)c2c(nc(CN3CCN(C(=O)c4ccco4)CC3)n2CC(N)=O)n(C)c1=O,15.4
9,Cc1ccc(Nc2nnc(SCC(=O)NCCN3C(=O)CSC3=O)s2)cc1C,10.7
10,CC(=O)N1c2ccc(S(=O)(=O)NCCC(=O)Nc3ccc(C)cn3)cc2CC1C (centres unmarked),13.4
11,O=C1OC(c2ccc(Cl)cc2)=N/C1=C\c1cccnc1,13.5
12,CCOC(=O)N1CCN(C(=O)CN(c2ccc(C)c(C)c2)S(=O)(=O)c2ccccc2)CC1,6.04
13,Cc1nc2c(C)cccc2c2c1CCS2,-0.722
14,O=C(Nc1ccc(-n2cnnn2)cc1)C1CCCN1C(=O)Nc1ccc(Br)cc1 (centres unmarked),-47.3
15,O=C(CCn1nc(-c2ccccc2)ccc1=O)N1CCCC1,-4.81
16,Cc1ccc(Sc2cc(C(=O)NCCN(C)C)c3ccccc3n2)cc1,-6.33
17,Oc1cccc(NC(=S)Nc2cccnc2)c1,11.9
18,COC(=O)c1nn(-c2ccccc2)c(Cl)c1/C=N/OCc1ccc(Cl)cc1Cl,17.9
19,CCOC(=O)N1CCN(CCC(=O)Nc2cc(OC)ccc2OC)CC1,7.28

row,Structure (SMILES),"hERG current change (%, negative = inhibition) at 1uM [%]"
1,Cc1ccn(CCC(=O)N2CCCC(CCC(=O)N3CCN(c4ccccn4)CC3)C2)n1 (centres unmarked),7.62
2,Cc1ccc(N2C(=O)C3C4C=CC(CNC(=S)N5CCN(c6cccc(C)c6)C(C)C5)(O4)C3C2=O)cc1 (centres unmarked),-11
3,COc1ccc(CN2C(=O)c3cccnc3C2=O)cc1S(=O)(=O)NCc1ccccc1,8.83
4,CS(=O)(=O)N(CC(=O)Nc1ccccc1F)C1CCCCC1,21.9
5,CCOC(=O)C1CCCN(Cc2ccc(OCc3ccccc3)c(OC)c2)C1.O=C(O)C(=O)O (centres unmarked),-24.1
6,CN(C)S(=O)(=O)n1cnc(-c2ccccc2)c1-c1ccccc1,11.4
7,Fc1ccc(NC(=S)NC2CC3CCCC(C2)N3Cc2cccs2)cc1 (centres unmarked),-21.3
8,COc1ccc(C(=O)NCC(=O)NCC(=O)OCc2ccc(Br)cc2)cc1,4.68
9,CC(Oc1ccc(Cl)cc1Cl)C(=O)/C=C/N(C)C (centres unmarked),-1.11
10,COc1ccccc1CCN1C(=S)NC(C)(C)CC1(C)O (centres unmarked),9.42
11,O=C(Nc1nc2ccccc2s1)c1cc2c(s1)-c1ccccc1OC2,4.38
12,O=C(NCCNC(=O)c1ccccc1)c1ccccc1,8.29
13,Cc1nn(CC(=O)NC2CCCCC2)c(=O)c2cccn12,7.64
14,CCCc1nc(C)cc(N2CCN(c3ccccc3)CC2)n1.Cl,0.598
15,CCCNC(=O)Cn1sc2nc(C)cc(C)c2c1=O,7.27
16,COc1cccc(C2CCCN2Cc2nc(-c3cnccn3)no2)c1 (centres unmarked),7.41
17,COc1ccc(S(=O)(=O)N2CCCN(CC(=O)C(C)(C)C)CC2)cc1,8.1
18,COc1cc(C2Nc3c(F)cccc3C3C=CCC32)cc(Br)c1OC (centres unmarked),9.77
19,COc1ccc2[nH]c(=O)c(CN(CCCN(C)C)C(=O)Nc3ccccc3)cc2c1,-1.4

row,Structure (SMILES),"hERG current change (%, negative = inhibition) at 1uM [%]"
1,O=[N+]([O-])c1cccc(/C=N/n2c(C3CCCCC3)n[nH]c2=S)c1,16.4
2,CCOC(=O)N1CCN(CC(=O)Nc2sc(CC)cc2C(=O)c2ccc(OC)cc2)CC1,10.6
3,O=C(O)C1=C[C@@H](c2ccc3c(c2)OCO3)C[C@@H](OCc2ccc(CO)cc2)O1,6.33
4,Cc1nn(CC(=O)Nc2c(F)c(F)cc(F)c2F)c(=O)c2cccn12,8.94
5,Cc1c(C(C)C)c(=O)n(-c2ccc(S(=O)(=O)NC3CC3)cc2)n1C,19.4
6,Cc1cc(C)c2ccc(=O)n(CC(=O)N/N=C/c3ccccc3Cl)c2n1,13.9
7,COC(=O)c1nnn(-c2nonc2N)c1CSCCO,16
8,O=C(CSc1nnnn1C1CCCC1)NCCc1ccccc1,-0.854
9,Cc1cc(-c2nnc(SCC(=O)Nc3ccc(S(N)(=O)=O)cc3)n2N)n[nH]1,-17.3
10,CN(C)c1ccc(C(=O)c2ccccc2C(=O)O)c(O)c1,13.2
11,COc1ccccc1NC(=O)c1oc2ccccc2c1NC(=O)C1CC1,6.86
12,CC1CCCN(S(=O)(=O)c2ccc(C(=O)Nc3nnc(C4=COCCO4)o3)cc2)C1 (centres unmarked),18.1
13,COC1=C(C)C(=O)O[C@]12C(=O)C(C)=C1CCCCN3[C@H]([C@@H]4C[C@H](C)C(=O)O4)CC[C@]132,5.01
14,Cc1nn(-c2ccccc2)c(Cl)c1/C=C(\C#N)C(=O)NC(C)C,-4.23
15,COc1ccc(OC)c(Nc2nc(-c3c(C)nc4ncccn34)cs2)c1,4.72
16,COC(=O)c1ccccc1NC(=O)C/C(C)=N/NC(=O)CC#N,2.83
17,Cn1c(=O)[nH]c(=O)c2c1nc(N1CCCCC1)n2CCCSc1nc2ccccc2s1,9.13
18,COc1cc(OC)cc(-c2c(-c3cccs3)c3cc(-c4ccc5cc[nH]c5c4)ccc3n2C)c1,21.5
